Results taken from the supplement of paper PMC4967469.
pIC50: −log10 of the molar value. Lines with a small IC50 respond at low doses; where the fit passes the top or lowest dose, that dose stands as a limit. AUC, from the same fit, is the share of area under the viability curve across the 256-fold dose range; it is 1 without any effect and falls as sensitivity rises. For part of these data: Any top dose called inferred comes from the curve model; the source does not state it.

Tests used:
Assay in all cases: Viability of human cancer cell lines after 72 h of drug (GDSC screen)
Rapamycin = compound: CO[C@H]1C[C@@H]2CC[C@@H](C)[C@@](O)(O2)C(=O)C(=O)N2CCCC[C@H]2C(=O)O[C@H]([C@H](C)C[C@@H]2CC[C@@H](O)[C@H](OC)C2)CC(=O)[C@H](C)/C=C(\C)[C@@H](O)[C@@H](OC)C(=O)[C@H](C)C[C@H](C)/C=C/C=C/C=C/1C [Rapamycin]; settings: top dose 0.1 µM; top dose inferred
Method: (§1)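 Human cancer cell lines in 384-well plates, medium with 10% serum, drug for 72 h over a 256-fold dose range (nine 2-fold or five 4-fold steps up to the top dose). Adherent lines were fixed and stained with the nucleic acid dye Syto60, suspension lines read with resazurin; signal relative to control wells, capped at 0 and 100%. One two-parameter sigmoid per drug and line, fitted in a mixed model over all curves with the slope shared within a line.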

Z-LLNle-CHO = compound: CCCC[C@@H](C=O)NC(=O)[C@H](CC(C)C)NC(=O)[C@H](CC(C)C)NC(=O)OCc1ccccc1 [Z-LLNle-CHO]; settings: top dose 2.56 µM; top dose inferred
Method: as §1

Temozolomide = compound: Cn1nnc2c(C(N)=O)ncn2c1=O [Temozolomide]; settings: top dose 30 µM
Method: as §1

IPA-3 = compound: Oc1ccc2ccccc2c1SSc1c(O)ccc2ccccc12 [IPA-3]; settings: top dose 32 µM; top dose inferred
Method: as §1

CI-1040 = compound: O=C(NOCC1CC1)c1ccc(F)c(F)c1Nc1ccc(I)cc1Cl [CI-1040]; settings: top dose 10 µM; top dose inferred
Method: as §1

Tubastatin A = compound: CN1CCc2c(c3ccccc3n2Cc2ccc(C(=O)NO)cc2)C1 [Tubastatin A]; settings: top dose 20 µM
Method: as §1

XL-880 = compound: COc1cc2c(Oc3ccc(NC(=O)C4(C(=O)Nc5ccc(F)cc5)CC4)cc3F)ccnc2cc1OCCCN1CCOCC1 [XL-880]; settings: top dose 5.12 µM; top dose inferred
Method: as §1

JW-7-52-1 = compound: CCC(=O)N1CCN(c2ccc(-n3c(=O)ccc4cnc5ccc(-c6cnc7ccccc7c6)cc5c43)cc2C(F)(F)F)CC1 [JW-7-52-1]; settings: top dose 1.2 µM; top dose inferred
Method: as §1

ZG-10 = compound: CN(C)C/C=C/C(=O)Nc1ccc(C(=O)Nc2cccc(Nc3nccc(-c4cccnc4)n3)c2)cc1 [ZG-10]; settings: top dose 10 µM; top dose inferred
Method: as §1

KLE (endometrium, adherent)
AUC (Rapamycin): 0.777
pIC50 (Rapamycin): 7.18
AUC (Z-LLNle-CHO): 0.65
pIC50 (Z-LLNle-CHO): 6.28
AUC (Temozolomide): 0.975
pIC50 (Temozolomide): < 4.52
AUC (IPA-3): 0.848
pIC50 (IPA-3): < 4.49
AUC (CI-1040): 0.921
pIC50 (CI-1040): < 5.00
AUC (Tubastatin A): 0.936
pIC50 (Tubastatin A): < 4.70
AUC (XL-880): 0.701
pIC50 (XL-880): 5.79

EW-12 (Ewing sarcoma, suspension)
AUC (Rapamycin): 0.717
pIC50 (Rapamycin): 7.37
AUC (Z-LLNle-CHO): 0.975
pIC50 (Z-LLNle-CHO): < 5.59
AUC (JW-7-52-1): 0.976
pIC50 (JW-7-52-1): < 5.92

NCI-H1299 (large cell lung carcinoma, adherent)
AUC (Rapamycin): 0.958
pIC50 (Rapamycin): < 7.00
AUC (Temozolomide): 0.95
pIC50 (Temozolomide): < 4.52
AUC (IPA-3): 0.781
pIC50 (IPA-3): 4.78
AUC (Tubastatin A): 0.982
pIC50 (Tubastatin A): < 4.70
AUC (XL-880): 0.765
pIC50 (XL-880): 5.64

NCI-H128 (small cell lung carcinoma, suspension)
AUC (Rapamycin): 0.941
pIC50 (Rapamycin): < 7.00
AUC (Z-LLNle-CHO): 0.954
pIC50 (Z-LLNle-CHO): < 5.59
AUC (JW-7-52-1): 0.918
pIC50 (JW-7-52-1): < 5.92

TC-YIK (cervix, suspension)
AUC (Rapamycin): 0.973
pIC50 (Rapamycin): < 7.00
AUC (Temozolomide): 0.97
pIC50 (Temozolomide): < 4.52
AUC (CI-1040): 0.842
pIC50 (CI-1040): 5.24

NCI-H2171 (small cell lung carcinoma, suspension)
AUC (Rapamycin): 0.958
pIC50 (Rapamycin): < 7.00
AUC (Z-LLNle-CHO): 0.9
pIC50 (Z-LLNle-CHO): 5.60
AUC (IPA-3): 0.954
pIC50 (IPA-3): < 4.49
AUC (JW-7-52-1): 0.965
pIC50 (JW-7-52-1): < 5.92
AUC (Tubastatin A): 0.979
pIC50 (Tubastatin A): < 4.70
AUC (XL-880): 0.559
pIC50 (XL-880): 6.34

SU-DHL-1 (anaplastic large cell lymphoma, suspension)
AUC (Rapamycin): 0.99
pIC50 (Rapamycin): < 7.00
AUC (Z-LLNle-CHO): 0.842
pIC50 (Z-LLNle-CHO): 5.95
AUC (IPA-3): 0.997
pIC50 (IPA-3): < 4.49
AUC (JW-7-52-1): 0.939
pIC50 (JW-7-52-1): 5.97
AUC (Tubastatin A): 0.997
pIC50 (Tubastatin A): < 4.70
AUC (XL-880): 0.689
pIC50 (XL-880): 6.04

HCC-33 (small cell lung carcinoma, adherent)
AUC (Rapamycin): 0.975
pIC50 (Rapamycin): < 7.00
AUC (Z-LLNle-CHO): 0.929
pIC50 (Z-LLNle-CHO): < 5.59
AUC (IPA-3): 0.742
pIC50 (IPA-3): 5.00
AUC (JW-7-52-1): 0.926
pIC50 (JW-7-52-1): < 5.92
AUC (Tubastatin A): 0.874
pIC50 (Tubastatin A): 4.70
AUC (XL-880): 0.793
pIC50 (XL-880): 5.63

EW-22 (Ewing sarcoma, adherent)
AUC (Rapamycin): 0.956
pIC50 (Rapamycin): < 7.00
AUC (Temozolomide): 0.987
pIC50 (Temozolomide): < 4.52
AUC (CI-1040): 0.94
pIC50 (CI-1040): < 5.00
AUC (ZG-10): 0.671
pIC50 (ZG-10): 5.74

TGBC24TKB (biliary tract, adherent)
AUC (Rapamycin): 0.443
pIC50 (Rapamycin): 8.35
AUC (Z-LLNle-CHO): 0.976
pIC50 (Z-LLNle-CHO): < 5.59
AUC (Temozolomide): 0.989
pIC50 (Temozolomide): < 4.52
AUC (IPA-3): 0.99
pIC50 (IPA-3): < 4.49
AUC (Tubastatin A): 0.984
pIC50 (Tubastatin A): < 4.70
AUC (XL-880): 0.663
pIC50 (XL-880): 6.06

NOS-1 (osteosarcoma, adherent)
AUC (Rapamycin): 0.132
pIC50 (Rapamycin): > 9.41
AUC (Z-LLNle-CHO): 0.778
pIC50 (Z-LLNle-CHO): 5.89
AUC (Temozolomide): 0.977
pIC50 (Temozolomide): < 4.52
AUC (IPA-3): 0.695
pIC50 (IPA-3): 5.09
AUC (CI-1040): 0.846
pIC50 (CI-1040): 5.00
AUC (Tubastatin A): 0.933
pIC50 (Tubastatin A): < 4.70
AUC (XL-880): 0.262
pIC50 (XL-880): 7.25
AUC (ZG-10): 0.773
pIC50 (ZG-10): 5.32
